Laboratory results from the supplement of paper PMC7125110.
± gives the standard error. Variants at the floor of the assay are shown more often than the library holds them.

B1: glmS ribozyme (parent)
chain: AUAAAAGCGCCAGAACUACAGAAAUGUAGUUGACGAGGAGGAGGUUUAUCGAAUUUUCGGCGGAUGCCUCCAAA

Variants of: B1
Assay: self-cleavage kobs at 2500 uM GlcN6P; higher = faster cleavage; RNA array
Details: with glucosamine-6-phosphate
Method in brief: (§1)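 Barcoded ribozyme variants, transcribed in situ by E. coli RNA polymerase on sequenced MiSeq chips, were followed via a hybridised Cy3 probe at 37 °C. Glucosamine-6-phosphate ranged from 40 μM to 10 mM in HEPES/KCl/Mg(OAc)2 buffer. kobs came from decay fits to per-tile medians, and kcat and KM from weighted Michaelis–Menten fits.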

Variant | self-cleavage kobs at 2500 uM GlcN6P [s⁻¹]
G9C A36C G38U | < 1e-05
C10U A12U A53U | 4.13e-05 ± 1.7e-05
C8G G37C G43A G59A | < 1e-05
C10A G40U U56A U65C | < 1e-05
G9C G32A A36C C67U | < 1e-05
G9A G59U C68G | < 1e-05
C11U U45A A53U U57G | < 1e-05
G9C G26U | < 1e-05
C10U G29U G38A | 0.00158 ± 0.0007
G13C G35C U55G C58U | < 1e-05
A12G A42U A48G | < 1e-05
A12G A53G G63C | < 1e-05
G13U G29U C70A | 4.33e-05 ± 1.9e-05
C11G U46A G51A | < 1e-05
G13U A36C A42G C58U | < 1e-05
A12C A15G G43C | < 1e-05
G13C A15C G32U G44A G59U | < 1e-05
C10U C16U A33C G41A G62C | < 1e-05
C8U C10U A48G G60C | < 1e-05
G9C C16G G29U | < 1e-05
G9C C10A A14U U57G | < 1e-05
C11G C61A C68A | 8.83e-05 ± 2.3e-05
G9C U49A U54A C67A | < 1e-05
C8U G41U C61A A64C | < 1e-05

Variant | self-cleavage kobs at 2500 uM GlcN6P [s⁻¹]
G13C C34G U49C C71A | < 1e-05
A12U C34A U57C | < 1e-05
C8U C11G G13C | < 1e-05
A12G U31A U45A | 0.000216 ± 6.4e-05
G13C G29C G38U C67G | 0.000596 ± 0.0002
C8U C50U U54A C70G | < 1e-05
G13U C58U A64G U65G | < 1e-05
C11U A39C G43U G62A | < 1e-05
C11G A12C A42C G66U U69C | < 1e-05
A12U A36C G62U | < 1e-05
G9C C11G G13U A14U U31A A64U | < 1e-05
G13U A33C A64U C71G | < 1e-05
C8G G66U C70A C71U | < 1e-05
A14C A52C C58A C61U | < 1e-05
C11G C16A U30C U31C U69A | < 1e-05
C10A C11G G51A | < 1e-05
G9C U31C G37U G66C C71G | < 1e-05
G13U G60C G63U C68G | < 1e-05
G9C G32U A64U | < 1e-05
G9C C16A C34A G44C A64G | < 1e-05
C10U A12U G63C C70A C71A | 5.29e-05 ± 1.7e-05
A12U G13C U56G C67U | < 1e-05
G13C U45G A53G G62A C68G C71G | < 1e-05
G13A U65G | 8.18e-05 ± 2e-05

Variant | self-cleavage kobs at 2500 uM GlcN6P [s⁻¹]
C10A U54C G59U C67U | < 1e-05
C8U A15C C16U U30G A53C U65G | < 1e-05
C10U G32C U46C C71G | < 1e-05
G13C G32U G43A U55C | < 1e-05
G13U A33C A64G | < 1e-05
C8G U30A U65G C70U | < 1e-05
C10G G44U C50G C67A U69G | < 1e-05
C11G G35A U55C | < 1e-05
G13A C34U G44C C58A C68A | < 1e-05
G9U C10U C67U | < 1e-05
C11G A15G U46A | < 1e-05
C11U G40C G44A G51A C61G C71A | < 1e-05
C10U A36U G51C A53C | < 1e-05
C8U G66U C68U | < 1e-05
G13C A36G A64U C70G | < 1e-05
G9A G44U C61U | < 1e-05
C11U G60C C61G | < 1e-05
A12U G29U G59U C71U | < 1e-05
G13C A33C G37U | < 1e-05
G13U U31C C70U | 0.000186 ± 4.5e-05
A14C A48G C70U | 5.88e-05 ± 2.6e-05
C8U A39C G40U U46G U47C C67U | < 1e-05
C10G G40C G59U | < 1e-05
C8U A36G G60U | < 1e-05

Variant | self-cleavage kobs at 2500 uM GlcN6P [s⁻¹]
G9U G32U G38U A42U | < 1e-05
C8U G60U C70G | < 1e-05
G9A G43C U45G U65C | < 1e-05
C11G G35C U69C | < 1e-05
A12C C34U U57C | < 1e-05
C11A C34A A42C C70A | < 1e-05
C11U G29U C67G | 0.000197 ± 6.6e-05
C11G A42U A52U C58G C70G | < 1e-05
G13U G37A G40C A52C A53G | < 1e-05
C10U A39G C58A | < 1e-05
A14C G37U G38C C71A | < 1e-05
C8U A14G C50U C71G | < 1e-05
G9C C11U U54A A64U | < 1e-05
C11U U30C A52G G59C | < 1e-05
C8U A39C G59U | < 1e-05
G13U C58G G63A | < 1e-05
G13C C16U C71U | 7.64e-05 ± 1.7e-05
C10U U31A A39U G51C | < 1e-05
C10A G32C A33U C71A | < 1e-05
C11A U31C G40C A53C | < 1e-05
C8G G29C G60U | < 1e-05
A12U A48U C70G | 0.000115 ± 5e-05
G13A G40A | 5.48e-05 ± 1.2e-05
G13C C34G C67A | < 1e-05

Variant | self-cleavage kobs at 2500 uM GlcN6P [s⁻¹]
G9U U54G | < 1e-05
C11U C34U G41A G66A C67U | < 1e-05
C11U G13C U46G A64U | < 1e-05
G9C G29A G51U C67A | < 1e-05
G13A G35U A64C | < 1e-05
G9C G38U G41U U65A | < 1e-05
C11A A36G A42G A52G G59U C61U C67G | < 1e-05
A12C G66U C70A | 0.000107 ± 2.6e-05
A12C A48G C58G | 4.08e-05 ± 1.8e-05
G9U A39G G59C | < 1e-05
A14C G35A A39G U69C | < 1e-05
G13A G37C U55A C68U | < 1e-05
G13U G38U U54G G62A | < 1e-05
C10G U46A G51C | < 1e-05
A12C A15U G43C G51A | < 1e-05
G9U C11U A14U U31C A64U | < 1e-05
C11U U31G G38C G44U A52C G62A | < 1e-05
G9A U31G G40C | < 1e-05
C10G A36U G40U A53U C68U | < 1e-05
C8U A42G G43U U49G | < 1e-05
G9A A14U U45G | < 1e-05
G13A A39U A42C A64U | < 1e-05
A12U G51C U55C | < 1e-05
C10U A33U A53C | < 1e-05

Variant | self-cleavage kobs at 2500 uM GlcN6P [s⁻¹]
A14C G32U U47C C67G | < 1e-05
C11G A12G G38A A42G G51U | < 1e-05
A12U A15C G41C C61U G66A | < 1e-05
G13C A36C G41U | < 1e-05
A12C C34U A52G C68A | < 1e-05
G9U U45A U57C C68A | < 1e-05
G9A G29U U31G G32A | < 1e-05
C10G G38U U55A | < 1e-05
C10A C70U | 2.56e-05 ± 1.3e-05
G9U C16G G35U A36C U56C G59U | < 1e-05
C10U G13U A52U U55A C68U | < 1e-05
C8G G35C A39U U47A | < 1e-05
A12U A33U G40U | 3.71e-05 ± 1.4e-05
C10G C11A A14G U30G | < 1e-05
A12U G35U G40U A48C C58G | < 1e-05
C8U C11U U30A A52C U69G | < 1e-05
G13A A39C U45C U55C U56A U57C G63C | < 1e-05
C11U G35A G37U A64C | < 1e-05
A12U U31G C58G | 7.42e-05 ± 2.7e-05
C11U U45A A64C | < 1e-05
A12U A33G G38U G44U G59A | < 1e-05
A14C A33C C58A | < 1e-05
C11G G51C A64C | < 1e-05
G9U C10G A15G U45G | < 1e-05

Variant | self-cleavage kobs at 2500 uM GlcN6P [s⁻¹]
C10A A33U G37C A53C C61U G63C | < 1e-05
C11G C16A G38A G60A | < 1e-05
G9U A12U C68U | < 1e-05
G9A G37C U55C A64U C67U C71A | < 1e-05
A12G C34U U45G | < 1e-05
G9U A15C G35A G66C C71G | < 1e-05
A12G A52G G60C U65G | < 1e-05
G9C C11U U46G | < 1e-05
C11G A48G G66C | < 1e-05
C11G C61A G62C | < 1e-05
A12U G32C A39U | < 1e-05
C10A A33G C34G G63U C70G | < 1e-05
G13U G62A G63U U65G | < 1e-05
A12G G37C G43A C70G | < 1e-05
G9U C67U | < 1e-05
G9A G29A A39G G43U U45G U54A | < 1e-05
G13U U45A U46A C58U | 6.89e-05 ± 3.4e-05
C11G C50G C58A | 0.00031 ± 0.00011
A12G G37C U56A G60A C61U G62U | < 1e-05
G9A A33U A39C A42U U46G U55A G60U A64U | < 1e-05

Variants of: B1
Assay: self-cleavage kobs at 10000 uM GlcN6P; higher = faster cleavage; RNA array
Details: with glucosamine-6-phosphate
Method in brief: as §1

Variant | self-cleavage kobs at 10000 uM GlcN6P [s⁻¹]
A12C A15G G43C | < 1e-05
A12U C34A U57C | < 1e-05
C11G A15G U46A | < 1e-05
G13U U31C C70U | 0.000187 ± 3.2e-05
G13C C16U C71U | 0.000169 ± 5.1e-05
C8G G29C G60U | < 1e-05
G13A G40A | 0.00011 ± 1.8e-05
C11U C34U G41A G66A C67U | < 1e-05
C11U G13C U46G A64U | < 1e-05
G9U C67U | < 1e-05
